From PubChem BioAssay AID504832 (National Center for Advancing Translational Sciences (NCATS), 2011)
Hit rate of the full screen: of about 310,000 compounds, about 18,000 (5.8%) were called active. The inconclusive results got no clear call from the source; some entries with a clear call stand among them for comparison. Calls come from the whole dose curve; as a rule, active = well fitted inhibition curve with a large enough effect; inconclusive = small, poorly fitted or top-dose-only effect, or another doubt; inactive = no such curve, though single readings can be large or run the other way. No potency is given beside an inconclusive call; the fits are too rough.
Potency is the fitted concentration of half-maximal effect; tags give direction and shape of the fitted curve.

Test: Primary qHTS for delayed death inhibitors of the malarial parasite plastid, 48 hour incubation
Settings: P. falciparum luciferase growth in erythrocytes; series mostly up to 28.7 µM
In short: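 Luciferase-expressing P. falciparum in infected erythrocytes (2% hematocrit, 0.1% parasitemia final) in RPMI 1640/0.5% Albumax were exposed to compound for 48 hours at 37 C, 5% CO2; growth read as luminescence.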
For Cc1nc2sc(C(=O)OCC(=O)N3c4ccccc4CC3C)c(C)c2c(=O)[nH]1 (centres undefined), the Potency was inconclusive [inhibitor, partial curve, poor fit]. In the case of COc1cccc(C=O)c1OCCCOc1cccc2cccnc12, the Potency is reported as “inactive”. With N#Cc1c(NC(=O)/C=C/C(=O)O)sc2c1CCN(Cc1ccccc1)C2 the Potency was “inactive”. For COc1ccccc1-c1c(C)nn2c(N3CCC(C)CC3)cc(C)nc12, the Potency was inconclusive [inhibitor, partial curve]. In the case of CC(=O)Nc1ccc(NC(=O)C2CCCCN2S(=O)(=O)c2ccc(C(C)(C)C)cc2)cc1 (centres undefined), the Potency is reported as inconclusive [inhibitor, single point]. For Cc1cccc(C)c1NC(=O)CN(C)C(=O)c1ccccc1Sc1ccccc1C#N, the Potency was active: 9.28 µM. In the case of CCOc1ccccc1CNC(=O)C1CCN(c2nn3c(=O)cc(C)nc3s2)CC1, the Potency is reported as “inactive”. With CC(NCc1ccccc1O)C12CC3CC(CC(C3)C1)C2 (centres undefined) the Potency was active: 0.0657 µM. In the case of Cc1ccc(C(=O)NCc2ccccn2)cc1NC1=NC2CS(=O)(=O)CC2S1 (centres undefined), the Potency is reported as “inactive”. With COCCOC(=O)C(C#N)c1nc2ccccc2nc1N1CCN(Cc2ccccc2)CC1 (centres undefined) the Potency was inconclusive [inhibitor, single point]. For CCOC(=O)c1ccc(N2C(=O)c3n[nH]c(C)c3C2c2ccc(OC)cc2)cc1 (centres undefined), the Potency was inconclusive [inhibitor, single point]. With Cc1ccc(/C=C2\C(=N)N3N=C(CC(=O)N4CCCCC4)SC3=NC2=O)cc1 the Potency was “inactive”. For Cn1nnnc1Sc1ncnc2scc(-c3ccc(C#N)cc3)c12, the Potency was active: 4.65 µM. For COc1ccccc1OCCCn1cc(C(C)=O)c2ccccc21, the Potency was inconclusive [inhibitor, single point]. For O=C(CN1C(=O)NC2(CCCCC2)C1=O)N1CCN(c2ncccn2)CC1, the Potency was “inactive”. For CC(c1ccccc1)N1CCn2c(nc3cc(NC(=O)c4cccs4)ccc32)C1 (centres undefined), the Potency was inconclusive [inhibitor, single point]. For CC(C)c1ccc(NC(=O)CNS(=O)(=O)c2ccc(F)cc2)cc1, the Potency was inconclusive [inhibitor, single point]. For COC(=O)c1[nH]c2ccc(F)cc2c1NC(=O)Nc1ccc(OC)cc1, the Potency was “inactive”. In the case of CC(=O)NNc1cc(C)nc(N)n1, the Potency is reported as “inactive”. For Cc1cccc(C)c1-n1c(C)cc(/C=C2\NC(=O)NC2=O)c1C, the Potency was active: 11.7 µM. For CCCN1CCC(NC(=O)CC2C(=O)NCCN2Cc2cccc(OC)c2)CC1 (centres undefined), the Potency was “inactive”. For O=C(c1ccccc1)N1CCN(c2ccc([N+](=O)[O-])c(NCc3ccco3)c2)CC1, the Potency was inconclusive [inhibitor, single point]. With O=C1/C(=C\c2ccc3ccccc3c2)CCCc2ccccc21 the Potency was inconclusive [inhibitor, single point]. In the case of O=C(CCCSc1nc(-c2ccco2)cc(C(F)(F)F)n1)Nc1ccc2c(c1)OCO2, the Potency is reported as inconclusive [inhibitor, single point]. With Cc1ccccc1OCc1nnc(SCC(=O)Nc2ccc3nc(SCC(=O)Nc4ccccc4)sc3c2)n1C the Potency was active: 13.1 µM. With Cc1ccc(-c2nnn(CC(=O)N(Cc3ccco3)C(C(=O)NC(C)(C)C)c3ccc(C)o3)n2)o1 (centres undefined) the Potency was inconclusive [inhibitor, single point]. With N/C(=N\OC(=O)c1ccc2c(c1)OCO2)c1ccc(Cl)cc1 the Potency was inconclusive [inhibitor, full curve, poor fit]. In the case of C/C(=C/CCC(C)C1CCC2(C)C3CCC4C(C)(C)C(=O)CCC4(C)C3=CCC12C)C(=O)O (centres undefined), the Potency is reported as inconclusive [inhibitor, single point]. In the case of O=C(OCC(=O)N1CCOCC1)c1cccc(F)c1, the Potency is reported as “inactive”. For COc1ccc(NS(=O)(=O)c2ccc(C)c(C(=O)OC(C)C(=O)N3CCOCC3)c2)cc1 (centres undefined), the Potency was inconclusive [inhibitor, single point]. With Cc1ccc(CN(CC(=O)NCC2CCCO2)S(=O)(=O)c2ccc(C)cc2)cc1 (centres undefined) the Potency was “inactive”. In the case of CCCCC1(C)NC(=O)c2c(C)sc(C(=O)OCC)c2N1 (centres undefined), the Potency is reported as inconclusive [inhibitor, partial curve]. For COc1cccc(CNC(=O)Cn2ccc3cc(S(=O)(=O)N4CCCC4)ccc32)c1, the Potency was inconclusive [inhibitor, single point]. In the case of O=C(CSc1n[nH]c(=O)n1C1CC1)c1ccc2c(c1)OCCO2, the Potency is reported as “inactive”. In the case of COc1ccc(S(=O)(=O)N2CCc3ccccc32)cc1C(=O)N(CC(C)C)C1CCS(=O)(=O)C1 (centres undefined), the Potency is reported as inconclusive [inhibitor, single point]. For CCOc1ccc(/C(O)=C2/C(=O)C(=O)N(CCCN3CCOCC3)C2c2ccc(F)cc2)cc1C (centres undefined), the Potency was “inactive”. With Cc1cc(NC(=O)CCCn2nc(C)c([N+](=O)[O-])c2C)no1 the Potency was “inactive”. With COc1ccc(CNc2ccc(C)c(C)c2)c(OC)c1OC the Potency was inconclusive [inhibitor, single point]. For CCNC(=S)N/N=C(\C)c1cccc([N+](=O)[O-])c1, the Potency was inconclusive [inhibitor, single point]. With CCCNC(=O)C1(S(=O)(=O)c2ccccc2)CC=CC1 the Potency was inconclusive [inhibitor, full curve, poor fit]. With Cc1cnc(Nc2nc3ccccc3o2)nc1C(=O)Nc1cccc(C(F)(F)F)c1 the Potency was inconclusive [inhibitor, single point]. With COc1cc(C)c(C)cc1S(=O)(=O)N1CCN(Cc2ccccc2)CC1 the Potency was inconclusive [inhibitor, full curve]. For CC(C)(C)OC(=O)[C@H](NC(=O)OCc1ccccc1)c1ccccc1, the Potency was inconclusive [inhibitor, single point]. In the case of CC(NCC(=O)Nc1ccccc1C(=O)NC1CC1)c1ccc(F)cc1F (centres undefined), the Potency is reported as inconclusive [inhibitor, partial curve, poor fit]. For O=C(CSc1ncnc2ccccc12)Nc1cccc(S(=O)(=O)N2CCOCC2)c1, the Potency was “inactive”. In the case of COc1ccc(-c2cc(C(F)F)n3ncc(C(=O)N4CCCCC4)c3n2)cc1, the Potency is reported as inconclusive [inhibitor, single point]. For CN1CCN(S(=O)(=O)c2cccc(C(=O)Nc3cc(C(F)(F)F)ccc3N3CCCC3)c2)CC1, the Potency was “inactive”. For COc1cccc(C2c3[nH]c4ccccc4c3C[C@H]3C(=O)N(C4CCN(Cc5ccccc5)CC4)CC(=O)N23)c1 (some centres undefined), the Potency was active: 4.65 µM. For COCCCNCCCOc1ccc(Cl)cc1C(C)(C)C, the Potency was inconclusive [inhibitor, single point]. For CC(C)CN(CCNC(=O)CN1C(=O)COc2ccc(S(=O)(=O)N3CCC(C)CC3)cc21)CC(C)C, the Potency was inconclusive [inhibitor, single point]. For Cn1c(N)c(C(=O)COC(=O)CNS(=O)(=O)c2ccc(Cl)c(Cl)c2)c(=O)n(C)c1=O, the Potency was “inactive”. In the case of CC(=O)N(CCCc1ccc(C(C)(C)C)cc1)CCCN(C)C, the Potency is reported as inconclusive [inhibitor, single point]. In the case of COc1ccc(Cl)c(N2CCN(CCCNC(=O)Nc3ccc(C)cc3)CC2)c1, the Potency is reported as active: 13.1 µM. In the case of O=C(Nc1cccnc1Cl)c1cc(-c2ccc(Cl)cc2)on1, the Potency is reported as “inactive”. In the case of COCCNC(=O)CN(C(=O)CCC(=O)Nc1ccccn1)c1ccccc1OC, the Potency is reported as inconclusive [inhibitor, single point]. For CCOC(=O)c1c(C)[nH]c(C)c1C(=O)COc1ccc(NC(=O)c2ccco2)cc1, the Potency was inconclusive [inhibitor, partial curve]. For CC(C)n1c(NCc2ccccc2O)nc2ccccc21, the Potency was inconclusive [inhibitor, single point]. For COc1cc(OC)c(NS(=O)(=O)c2cc(C(=O)OC(C)C(=O)NC3CC3)c(Cl)cc2Cl)cc1Cl (centres undefined), the Potency was inconclusive [inhibitor, single point]. For CC(C)Nc1nc(Cl)nc(N(C#N)CN2C(=O)c3ccccc3S2(=O)=O)n1, the Potency was “inactive”. For Cc1nn(-c2ccccc2)c2sc(C(=O)NC3CCCCC3)cc12, the Potency was inconclusive [inhibitor, single point]. In the case of CC(C)N(C(=O)Cn1c(SCC(=O)NCc2ccc3c(c2)OCO3)nc2ccccc21)C(C)C, the Potency is reported as inconclusive [inhibitor, partial curve, poor fit]. With CN(C(=O)CSc1nc2ccc(Br)cc2c(=O)n1Cc1ccco1)C1CCS(=O)(=O)C1 (centres undefined) the Potency was inconclusive [inhibitor, single point]. With CCn1cc(CNC(=S)Nc2cccc3ccccc23)cn1 the Potency was “inactive”. For Cc1nc(N2C(=O)C(=O)/C(=C(/O)c3ccccc3)C2c2ccco2)sc1C (centres undefined), the Potency was inconclusive [inhibitor, single point]. In the case of COc1ccc(N2CCN(C(=O)COC(=O)c3c(-c4ccccc4)noc3C)CC2)cc1, the Potency is reported as “inactive”. For CCCCOc1ccc(C(=O)N2CCN(c3ncccn3)CC2)cc1, the Potency was inconclusive [inhibitor, single point]. For COCCCn1c(=O)c2ccccc2n(Cc2cccc(C)c2)c1=O, the Potency was inconclusive [inhibitor, partial curve, poor fit]. For CCN(CC)S(=O)(=O)c1ccc2[nH]c(=O)cc(C(=O)NCC(c3ccco3)N3CCCC3)c2c1 (centres undefined), the Potency was inconclusive [inhibitor, single point]. In the case of CCc1cc2cc(C)ccc2nc1SCC(=O)NNC(=O)c1ccco1, the Potency is reported as inconclusive [inhibitor, single point].
